Reference: PubChem BioAssay AID488969 (Vanderbilt High Throughput Screening Facility, 2010)
The full ranking holds about 110,000 compounds; the median of “z-score” is about -0.1, and the highest 2% start at about 2. This is one part of the list.

The molecules below were run against Metabotropic glutamate receptor 8 (Rattus norvegicus) (UniProt P70579) (assay: mGluR8 Gi/Go-coupled signaling modulation – cell-based, rat, thallium flux, HTS, primary screen (AID 488969)). Details: HEK293 rat mGluR8, GIRK (G protein-gated inwardly rectifying potassium channel) thallium flux, FluoZin2; at 10 µM; stronger effect = higher value; submaximal glutamate (EC20) added with thallium.
UniProt P70579, sequence (P70579 whole entry, looked up): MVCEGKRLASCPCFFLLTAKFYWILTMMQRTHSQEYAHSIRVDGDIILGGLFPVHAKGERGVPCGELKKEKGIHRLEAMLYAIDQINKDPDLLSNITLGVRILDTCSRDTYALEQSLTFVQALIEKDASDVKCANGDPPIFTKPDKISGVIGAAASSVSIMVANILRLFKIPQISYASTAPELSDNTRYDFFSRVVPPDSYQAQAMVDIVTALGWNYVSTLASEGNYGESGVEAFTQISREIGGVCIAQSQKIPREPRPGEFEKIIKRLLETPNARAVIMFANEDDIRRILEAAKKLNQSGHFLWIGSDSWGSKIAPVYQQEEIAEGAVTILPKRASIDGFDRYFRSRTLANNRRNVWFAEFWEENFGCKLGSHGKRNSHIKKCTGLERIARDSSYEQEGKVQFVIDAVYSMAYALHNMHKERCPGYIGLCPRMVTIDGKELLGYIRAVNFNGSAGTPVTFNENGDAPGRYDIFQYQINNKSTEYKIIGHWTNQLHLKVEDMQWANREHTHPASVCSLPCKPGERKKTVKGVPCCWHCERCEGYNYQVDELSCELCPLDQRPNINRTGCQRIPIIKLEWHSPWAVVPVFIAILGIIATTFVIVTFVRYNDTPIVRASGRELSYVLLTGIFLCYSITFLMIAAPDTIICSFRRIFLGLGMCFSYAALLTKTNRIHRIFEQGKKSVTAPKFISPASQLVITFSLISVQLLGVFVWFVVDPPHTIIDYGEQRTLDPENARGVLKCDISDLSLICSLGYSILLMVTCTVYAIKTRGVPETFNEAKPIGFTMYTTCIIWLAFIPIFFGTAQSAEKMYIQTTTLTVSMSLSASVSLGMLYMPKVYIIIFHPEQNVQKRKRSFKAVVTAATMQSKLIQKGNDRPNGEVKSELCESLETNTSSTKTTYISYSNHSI

**Q.** Which z-score does the source give for `CCOc1ccccc1N(CC(=O)Nc1ccccc1C(=O)O)S(C)(=O)=O` here?
**A.** The z-score was 0.403.

**Q.** Which z-score does the source give for `COc1cccc(/C=N/NC(=O)C(=O)NCc2cccnc2)c1O` here?
**A.** Its z-score is -0.13.

**Q.** `CC(=O)Nc1ccc(S(=O)(=O)N(C2=NCC(C)S2)c2ccccc2)cc1` (stereo not given) was tested. Which z-score did it give?
**A.** Its z-score is -1.3.

**Q.** Which z-score does the source give for `CC(C)(C)NC(=O)C(c1ccccn1)N(C(=O)c1ccc2c(c1)OCCO2)C1CCCC1` (stereo not given) here?
**A.** The z-score was -0.011.

**Q.** How did the z-score turn out when `COCCN(C(=O)Cn1nnc2ccccc21)C(C(=O)NC1CCCC1)c1cc(OC)ccc1OC` (stereo not given) was run?
**A.** Its z-score is -0.0886.

**Q.** For `Cc1ccc(N2C(=O)c3ccc(C(=O)N4CCN(c5cccc(C)c5C)CC4)cc3C2=O)cc1`, which z-score is on record?
**A.** Its z-score is -0.161.

**Q.** For `Cc1ccc2nc(-c3cccnc3)c(NC3CCCC3)n2c1`, which z-score is on record?
**A.** Its z-score is -0.516.

**Q.** How did the z-score turn out when `O=C(NCc1ccc(F)cc1)C1CCN(C(=O)NCc2ccccc2)CC1` was run?
**A.** The z-score was 0.336.

**Q.** How did the z-score turn out when `COc1ccccc1NC(=S)c1ccccc1` was run?
**A.** The z-score was -0.339.

**Q.** `COCCn1c(SC)nnc1-c1c[nH]c2ccccc12` was tested. Which z-score did it give?
**A.** Its z-score is 0.391.

**Q.** `N#Cc1cc(-c2ccccc2)nnc1Sc1ccccc1` was tested. Which z-score did it give?
**A.** The z-score was -0.352.

**Q.** For `COc1cc(C(=O)N2CCCc3ccccc32)cc(OC)c1OC`, which z-score is on record?
**A.** Its z-score is -0.284.

**Q.** `CCOc1ccc(N2C(=O)c3cccnc3C2Nc2ccc(F)cc2)cc1` (stereo not given) was tested. Which z-score did it give?
**A.** Its z-score is -0.265.

**Q.** With `CCC1=[N+]([O-])C(C)(/C(C)=N\O)N(O)C1(C)C` (stereo not given) as the molecule, how does the z-score read?
**A.** The z-score was -0.0953.

**Q.** How did the z-score turn out when `O=C(Oc1cc(-c2ccccc2)no1)c1ccc(Cl)cc1` was run?
**A.** Its z-score is 0.668.

**Q.** Which z-score does the source give for `O=C(Nc1ccc2c(c1)OCO2)C1CCCN(S(=O)(=O)c2cccs2)C1` (stereo not given) here?
**A.** The z-score was -0.132.

**Q.** For `COc1ccc(CCNc2oc(-c3ccccc3OC)nc2C#N)cc1`, which z-score is on record?
**A.** Its z-score is -0.451.

**Q.** `CCOC(=O)c1cc(C(=O)Nc2cccc(C)c2)nn1C` was tested. Which z-score did it give?
**A.** The z-score was -0.147.

**Q.** For `CCn1c(CNC(=O)Cc2ccc(OC)cc2)nnc1SCCOc1ccccc1`, which z-score is on record?
**A.** The z-score was -0.339.

**Q.** `Cc1ccc(SCC(=O)Nc2ncc(C)s2)cc1` was tested. Which z-score did it give?
**A.** Its z-score is 0.127.

**Q.** Which z-score does the source give for `COc1nc(Oc2ccc(=O)[nH]n2)nc(N2CCOCC2)n1` here?
**A.** The z-score was 0.372.

**Q.** How did the z-score turn out when `CC(=O)NCCOc1cccc2ccccc12` was run?
**A.** The z-score was -0.149.

**Q.** For `Cc1ccc(-n2c(=O)[nH]c3cc(C(=O)NC4CCN(Cc5ccccc5)CC4)ccc3c2=O)cc1`, which z-score is on record?
**A.** Its z-score is -0.0496.

**Q.** `CC(=O)Nc1ccc(S(=O)(=O)c2ccc(N)cc2)cc1N` was tested. Which z-score did it give?
**A.** Its z-score is 0.0639.

**Q.** How did the z-score turn out when `O=C(COc1ccc(C(=O)c2ccccc2)cc1)NCc1ccc(F)cc1` was run?
**A.** Its z-score is -0.351.

**Q.** For `Nc1nc(Nc2ccccc2)nc(N2CCOCC2)c1[N+](=O)[O-]`, which z-score is on record?
**A.** The z-score was -0.211.

**Q.** For `COc1ccc2[nH]c(=O)c(CN(C(=O)COc3ccccc3)C(C)C)cc2c1`, which z-score is on record?
**A.** The z-score was -0.936.

**Q.** How did the z-score turn out when `CCN=C(Nc1ccc(Cl)cc1)c1cccnc1` was run?
**A.** Its z-score is -0.0365.

**Q.** Which z-score does the source give for `COc1ccc(Cl)cc1NC(=O)CN1C(=O)CCS(=O)(=O)c2ccccc21` here?
**A.** Its z-score is -0.285.

**Q.** For `COc1cc(C2C(C(C)=O)=C(O)C(=O)N2c2ccc(Br)cn2)ccc1O` (stereo not given), which z-score is on record?
**A.** The z-score was 0.097.

**Q.** `Cc1ccc(C)c2[nH]c(=O)c(C(c3nnnn3Cc3ccccc3)N3CCc4ccccc4C3)cc12` (stereo not given) was tested. Which z-score did it give?
**A.** Its z-score is -0.148.

**Q.** Which z-score does the source give for `CC1Cc2ccccc2N1C(=O)CSc1nnc2sc3ccccc3n12` (stereo not given) here?
**A.** The z-score was -0.547.

**Q.** For `O=C(CSCc1ccc(F)cc1)Nc1nc2c(s1)CCCC2`, which z-score is on record?
**A.** The z-score was 0.848.

**Q.** For `COc1ccccc1-c1cc(C(=O)NC(C)c2ccccc2)no1` (stereo not given), which z-score is on record?
**A.** The z-score was -0.492.

**Q.** For `COc1cccc(-c2cc(C(=O)N3CCN(Cc4ccccc4)CC3)no2)c1`, which z-score is on record?
**A.** The z-score was 0.395.

**Q.** Which z-score does the source give for `CCCc1nc(SCC(=O)Nc2nc3c(s2)CCCC3)c2ccccc2n1` here?
**A.** Its z-score is 0.532.

**Q.** Which z-score does the source give for `COc1ccc2[nH]c(C(=O)O)c(CCC(=O)O)c2c1` here?
**A.** The z-score was -0.0774.

**Q.** Which z-score does the source give for `O=C(NCc1cc(C(F)(F)F)cc(C(F)(F)F)c1)C12CN(Cc3ccccc3)CC1C(c1cccc([N+](=O)[O-])c1)=NO2` (stereo not given) here?
**A.** The z-score was -0.3.

**Q.** With `Cc1ccc(Oc2nc3ccccc3n3cccc23)cc1` as the molecule, how does the z-score read?
**A.** Its z-score is 0.0653.

**Q.** With `CC(=O)Oc1cccc(N2C(=O)C3CC=CCC3C2=O)c1` (stereo not given) as the molecule, how does the z-score read?
**A.** The z-score was -0.543.

**Q.** Which z-score does the source give for `Cc1ccccc1OCC(=O)NN1Cc2ccccc2C1=N` here?
**A.** Its z-score is 1.18.

**Q.** With `N#CC(C(=O)C1CCCCC1)c1nc2ccccc2[nH]1` (stereo not given) as the molecule, how does the z-score read?
**A.** Its z-score is 0.179.

**Q.** `CCc1nnc(NC(=O)C2CCN(c3nccc(C)n3)CC2)s1` was tested. Which z-score did it give?
**A.** The z-score was 0.111.

**Q.** With `COc1nc(N(C)C)nc(N2CC(=O)N(CCNS(=O)(=O)c3ccc(C)cc3)C2=N)n1` as the molecule, how does the z-score read?
**A.** Its z-score is -0.0633.

**Q.** Which z-score does the source give for `COc1ccc(C(=O)c2nc3c(n2O)CCCC3)cc1OC` here?
**A.** Its z-score is 0.301.

**Q.** `Cc1ccccc1NCC(=O)N/N=C/C(Br)=C/c1ccccc1` was tested. Which z-score did it give?
**A.** The z-score was -0.294.

**Q.** How did the z-score turn out when `C#CC[N+]1(CC#Cc2ccc(C#CC[N+]3(CC#C)CCOCC3)cc2)CCOCC1` was run?
**A.** The z-score was 0.0885.

**Q.** With `CC1=C(CC/C(C)=N/NC(N)=S)C(C)(C)CCC1` as the molecule, how does the z-score read?
**A.** Its z-score is 1.85.

**Q.** Which z-score does the source give for `O=C(Nc1ccc2c(c1)nc1n2CCN(Cc2ccccc2)C1)c1cccs1` here?
**A.** The z-score was -1.44.

**Q.** For `S=c1[nH]ncn1/N=C/c1ccccc1`, which z-score is on record?
**A.** Its z-score is -0.079.

**Q.** Which z-score does the source give for `Cc1c(Cl)c([N+](=O)[O-])nn1CC(=O)NCc1ccco1` here?
**A.** The z-score was -0.136.

**Q.** Which z-score does the source give for `O=C(NCc1ccccc1)C12CN(Cc3ccccc3)CC1C(c1cccc([N+](=O)[O-])c1)=NO2` (stereo not given) here?
**A.** Its z-score is -0.327.

**Q.** For `O=C(Cc1ccc(Cl)cc1Cl)OCC(=O)c1ccc[nH]1`, which z-score is on record?
**A.** The z-score was 0.0807.

**Q.** `CCN1CCN(C(=O)c2cn(CCOC)c(=O)c3c2c2ccccc2n3C)CC1` was tested. Which z-score did it give?
**A.** The z-score was 0.277.

**Q.** With `COc1ccc(C2(CNC(=O)CCC(=O)O)CCCC2)cc1` as the molecule, how does the z-score read?
**A.** Its z-score is 0.482.
